From the supplement of paper PMC7125110
± gives the standard error. Variants at the floor of the assay are shown more often than the library holds them.

B1: glmS ribozyme (parent)
chain: AUAAAAGCGCCAGAACUACAGAAAUGUAGUUGACGAGGAGGAGGUUUAUCGAAUUUUCGGCGGAUGCCUCCAAA

Variants of: B1
Experiment: self-cleavage kobs at 2500 uM GlcN6P; higher = faster cleavage; RNA array
Settings: with glucosamine-6-phosphate
In short: (§1)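 kobs was derived by fitting per-tile medians to one- or two-exponential decays after normalising signals to baseline and to non-cleaving reference variants. Those signals came from barcoded ribozyme variants transcribed in situ by E. coli RNA polymerase on sequenced MiSeq chips, followed through a hybridised Cy3 probe at 37 °C and imaged over ~14 h. Glucosamine-6-phosphate (40 μM to 10 mM) in HEPES/KCl/Mg(OAc)2 buffer was flowed in. Weighted Michaelis–Menten fits across concentrations then gave kcat and KM.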

| Variant | self-cleavage kobs at 2500 uM GlcN6P [s⁻¹] |
| --- | --- |
| AUAAAAGCGCCAGAACUACAGAAAUGUAGUUGACGAGGAGGAGGUUAAUCGAAUUUUCGUACGAUGCUUCCAAA [U47A G60U C61A G62C C68U] | < 1e-05 |
| AUAAAAGCGCCAGAACUACAGAAAUGUAGUUGACGAGGAGGAGGUUCGUCGCAUUUUCGGCAGAUGCCUCCAAA [U47C A48G A52C G62A] | < 1e-05 |
| AUAAAAGCGCCAGAACUACAGAAAUGUAGUUGACGAGGAGGAGGUUCAUCGAAUUUCCGGCGGAUGCCUCGAAA [U47C U57C C71G] | < 1e-05 |
| AUAAAAGCGCCAGAACUACAGAAAUGUAGUUGACGAGGAGGAGGGUUAUCGAAUUCUCGGCGGAUGCCUUAAAA [U45G U56C C70U C71A] | < 1e-05 |
| AUAAAAGCGCCAGAACUACAGAAAUGUAGUUGACGAGGAGGAGGUUUAGCGAAUUUUCGGCGGAUGCCACCAAA [U49G U69A] | 8.22e-05 ± 2.2e-05 |
| AUAAAAGCGCCAGAACUACAGAAAUGUAGUUGACGAGGAGGAGGUUUAUCUAGUUUUCUGCGGAUGCCUCCAAA [G51U A53G G59U] | < 1e-05 |
| AUAAAAGCGCCAGAACUACAGAAAUGUAGUUGACGAGGAGGAGGUUUAACGAAUUUUGGGCGUAUGCCUCCAAA [U49A C58G G63U] | < 1e-05 |
| AUAAAAGCGCCAGAACUACAGAAAUGUAGUUGACGAGGAGGAGGUUUAUCGGAUUUUCCGCGGAUGCCUCCAAA [A52G G59C] | < 1e-05 |
| AUAAAAGCGCCAGAACUACAGAAAUGUAGUUGACGAGGAGGAGGUCUAUCCAAUUUUUGGCGGAUGACUCCAAA [U46C G51C C58U C67A] | < 1e-05 |
| AUAAAAGCGCCAGAACUACAGAAAUGUAGUUGACGAGGAGGAGGUUUUUCGAAUUUUCGGCGGAUGCCUCAAAA [A48U C71A] | 0.000102 ± 2.6e-05 |
| AUAAAAGCGCCAGAACUACAGAAAUGUAGUUGACGAGGAGGAGGUUUAUCGACUGUUCGGCGGAUACCUCCAAA [A53C U55G G66A] | 0.00165 ± 0.00032 |
| AUAAAAGCGCCAGAACUACAGAAAUGUAGUUGACGAGGAGGAGGUUUAUCGUAUUUUCGGUGGAUGCCUACAAA [A52U C61U C70A] | < 1e-05 |
| AUAAAAGCGCCAGAACUACAGAAAUGUAGUUGACGAGGAGGAGGUUUAUCGUAUUUUCGGACGAUGCCUCCAAA [A52U C61A G62C] | < 1e-05 |
| AUAAAAGCGCCAGAACUACAGAAAUGUAGUUGACGAGGAGGAGGUUUAUCAAAUUUUUGGCGAAUGCCUCCAAA [G51A C58U G63A] | < 1e-05 |
| AUAAAAGCGCCAGAACUACAGAAAUGUAGUUGACGAGGAGGAGGUUUAUCUAAUUUUCCGCGGAUUCCUCCAAA [G51U G59C G66U] | < 1e-05 |
| AUAAAAGCGCCAGAACUACAGAAAUGUAGUUGACGAGGAGGAGGUUUAUCGAAUUCUCGGCGGAUGACUCGAAA [U56C C67A C71G] | < 1e-05 |
| AUAAAAGCGCCAGAACUACAGAAAUGUAGUUGACGAGGAGGAGGUAUAUCGAAUUUUCGGCGGGUACCUCGAAA [U46A A64G G66A C71G] | 6.58e-05 ± 2.6e-05 |
| AUAAAAGCGCCAGAACUACAGAAAUGUAGUUGACGAGGAGGAGCUUUAUCGAAUCUUCGGCGGAUGCCUGCAAA [G44C U55C C70G] | < 1e-05 |
| AUAAAAGCGCCAGAACUACAGAAAUGUAGUUGACGAGGAGGAGGUUUAUCGAAUUUUCGGCGGAUGCAUCUAAA [C68A C71U] | 2.17e-05 ± 9.8e-06 |
| AUAAAAGCGCCAGAACUACAGAAAUGUAGUUGACGAGGAGGAGAUUUAUCUAAUUUACGGCGGAUGCCUCCAAA [G44A G51U U57A] | < 1e-05 |
| AUAAAAGCGCCAGAACUACAGAAAUGUAGUUGACGAGGAGGAGGUUUAUCGAACUUUCGGCGGUUGCCUCCAAA [U54C A64U] | 5.96e-05 ± 1.3e-05 |

Variants of: B1
Experiment: self-cleavage kobs at 10000 uM GlcN6P; higher = faster cleavage; RNA array
Settings: with glucosamine-6-phosphate
In short: as §1

| Variant | self-cleavage kobs at 10000 uM GlcN6P [s⁻¹] |
| --- | --- |
| AUAAAAGCGCCAGAACUACAGAAAUGUAGUUGACGAGGAGGAGGUUCGUCGCAUUUUCGGCAGAUGCCUCCAAA [U47C A48G A52C G62A] | < 1e-05 |
| AUAAACGCGCCAGAACUACAGAAAUGUAGUUGACGAGGAGGAGGUGUAUCGAAUUUUCGGCGCAUGCCUCCAAA [A6C U46G G63C] | < 1e-05 |
| AUAAAAGCGCCAGAACUACAGAAAUGUAGUUGACGAGGAGGAGGUUUUUCGAAUUUUCGGCGGAUGCCUCAAAA [A48U C71A] | 0.000111 ± 1.4e-05 |
| AUAAACGCGCCAGAAGUACAGAAAUGUAGUCGAGGAGGAGGAGGUUUAUCGAAUUUUCGGCGGAUGCAUCCAAA [A6C C16G U31C C34G C68A] | < 1e-05 |
| AUAAAGGCGCCAGAACUACAGAAAUGUAGUUGACGAGGAGGAGGUAUAUCGAAUUUUCGGCGGAUGCCACCAAA [A6G U46A U69A] | < 1e-05 |
| AUAAACGCGCCAGAACUACAGAAAUGUAGUUGACGAGGAGGAGGUUUAUCUCAUUUUCGGCGGAUGCCUCCAAA [A6C G51U A52C] | < 1e-05 |
| AUAAACGCGCCAAAACUACAGAAAUGUAGUUGAAGAGGAGGAGAUUUAUCGAAUUUUCGUCGGAUGCCUCCAAA [A6C G13A C34A G44A G60U] | < 1e-05 |
| AUAAACGCGCCAGAACUACAGAAAUUUAGUUGACGACCAGGAGGUUUAUCGAAUUUUCGGCGGAUGCCUCCAAA [A6C G26U G37C G38C] | < 1e-05 |
| AUAAACGCGCCCGAACUACAGAAAUGUAGUUGACGAGGAGGAGGUUUAUCGAUUUUCCGGCGGAUGCCUCCAAA [A6C A12C A53U U57C] | < 1e-05 |
| AUAAAAGCGCCAGAACUACAGAAAUGUAGUUGACGAGGAGGAGGUUUAUCUAAUUUUCCGCGGAUUCCUCCAAA [G51U G59C G66U] | < 1e-05 |
| AUAAACGCGCCAGAACUACAGAAAUGUAGAUGCCGAGGAGGAGGUUUAUCGAAUUUUCGUCGGAUGCCUCCAAA [A6C U30A A33C G60U] | < 1e-05 |
| AUAAAAGCGCCAGAACUACAGAAAUGUAGUUGACGAGGAGGAGAUUUAUCUAAUUUACGGCGGAUGCCUCCAAA [G44A G51U U57A] | < 1e-05 |
| AUAAAAGCGCCAGAACUACAGAAAUGUAGUUGACGAGGAGGAGGUUUAUCGAACUUUCGGCGGUUGCCUCCAAA [U54C A64U] | 6.16e-05 ± 1.3e-05 |
| AUAAAGGCGCCAGAACUACAGAAAUGUAGUUGAGGUGGAGGAGGUUUCUCGAAUUUUCGGCGGAUGCCUCCAAA [A6G C34G A36U A48C] | < 1e-05 |
| AUAAAGGCGCCAGAACUACAGAAAUGUAGUUGACGAGGAGGAGGUUUAUCGAAAUAUCGGCGGAUGCCUCCAAA [A6G U54A U56A] | 0.000141 ± 2.8e-05 |
